# About 25,000 (6.9%) of roughly 360,000 compounds were called active. The inconclusive results got no clear call from the source; some entries with a clear call stand among them for comparison. The call rests on the fitted dose curve; in most records, active means well fitted inhibition curve with a large enough effect; inconclusive means small, poorly fitted or top-dose-only effect; inactive means flat fitted curve, though single readings scatter. Where the call is inconclusive, the potency comes from a doubtful curve fit.
# Biological target: Luciferin 4-monooxygenase (Photinus pyralis) (UniProt P08659)
# Assay: qHTS profiling assay for firefly luciferase inhibitor/activator using purifed enzyme and Km concentrations of substrates (counterscreen for miR-21 project); further: nearly all actives have a fitted effect of over 55% in size;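 on activity change, negative = inhibition: plate controls were vehicle for no effect and reference inhibitor for full effect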
# Details: purified FLuc, luminescence inhibition; series mostly up to 57.5 µM
# Method in brief: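 Purified P. pyralis luciferase, 10 nM final, with Km-level 10 uM D-luciferin and 10 uM ATP in 50 mM Tris acetate pH 7.5, 10 mM Mg acetate, 0.01% Tween-20, 0.05% BSA; 6-point qHTS titration about 60 µM downward; luminescence read.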
# Potency means the concentration at half of the fitted maximal effect; tags describe the fitted curve by direction and shape.
# Chain of UniProt P08659 (P08659 whole entry, looked up): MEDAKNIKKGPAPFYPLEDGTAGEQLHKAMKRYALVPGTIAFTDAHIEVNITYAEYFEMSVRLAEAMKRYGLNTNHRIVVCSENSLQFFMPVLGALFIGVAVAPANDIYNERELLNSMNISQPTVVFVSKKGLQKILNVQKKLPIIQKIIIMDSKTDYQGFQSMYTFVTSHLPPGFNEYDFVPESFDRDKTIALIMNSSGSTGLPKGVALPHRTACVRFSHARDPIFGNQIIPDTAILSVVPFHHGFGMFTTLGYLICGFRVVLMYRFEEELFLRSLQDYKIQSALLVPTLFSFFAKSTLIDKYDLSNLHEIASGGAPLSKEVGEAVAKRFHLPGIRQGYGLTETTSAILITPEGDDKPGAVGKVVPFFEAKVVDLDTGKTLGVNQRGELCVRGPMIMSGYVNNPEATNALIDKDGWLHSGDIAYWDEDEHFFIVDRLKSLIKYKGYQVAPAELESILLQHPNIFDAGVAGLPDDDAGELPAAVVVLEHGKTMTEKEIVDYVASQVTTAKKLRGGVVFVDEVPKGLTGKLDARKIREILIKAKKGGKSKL
SMILES,Potency,"activity change, negative = inhibition"
O=C(Nc1cccc(-c2nc3ncccc3o2)c1)c1ccccc1,"inconclusive: 19 µM [inhibitor, partial curve]",
O=C(O)CCCNC(=O)Nc1ccccc1,"inconclusive: 30.1 µM [inhibitor, partial curve, poor fit]",
O=C(COc1ccccc1)N1CCN(C(=O)COc2ccccc2)CC1,inactive,
COc1ccccc1CC(=O)Nc1ccc2c(c1)CCC2,"inconclusive: 30.1 µM [inhibitor, partial curve, poor fit]",
CN(C)CCCN(C(=O)c1ccc(S(=O)(=O)N2CCCCCC2)cc1)c1nc2ccc(Br)cc2s1,inactive,
Cc1ccc(-c2nc(C=Nc3cccc(C)c3)c(O)o2)cc1,"inconclusive: 8.49 µM [inhibitor, partial curve]",
O=C(O)c1ccccc1C(=O)NNc1cccc(Cl)n1,"inconclusive: 30.1 µM [inhibitor, single point]",
CCn1c(NC(=O)c2ccccc2)nc2ccccc21,active: 16.9 µM,
Cc1ccc(Cl)cc1NC(=O)Nn1cnnc1,inactive,
COc1ccc(OCC(=O)Nc2ccccc2OC)cc1,"inconclusive: 37.9 µM [inhibitor, single point]",
COc1cc(OC)c(NS(=O)(=O)c2c(C(=O)N3CCC(C)CC3)c(C)n(C)c2C)cc1Cl,inactive,
O=C(Nc1ccon1)c1cccc(C(F)(F)F)c1,,inactive: 6.92% [at 2.3 µM]
COC(=O)c1cc(C(=O)Nc2cc(C)ccn2)cc([N+](=O)[O-])c1,"inconclusive: 37.9 µM [inhibitor, partial curve, poor fit]",
COc1ccc(-n2cnc3cc(NCc4ccco4)ccc32)cc1,active: 7.57 µM,
CCOC(=O)Cc1csc(NC(=O)CSc2ncnc3c2cnn3-c2ccccc2Cl)n1,"inconclusive: 26.9 µM [inhibitor, partial curve, poor fit]",
CC(C)c1nn2c(=O)cc(COC(=O)c3ccccc3NC(=O)c3cccc(Cl)c3)nc2s1,inactive,
CC(C)=CC(=O)Nc1ccc(S(=O)(=O)Nc2ccccn2)cc1,inactive,
Oc1ccc2ccccc2c1Br,"inconclusive: 37.9 µM [inhibitor, partial curve, poor fit]",
O=C(Nc1ccccc1)C1CCCN1C(=O)Nc1ccccc1[N+](=O)[O-] (centres undefined),inactive,
COc1ccc(-c2csc(-c3[nH]cnc3N)n2)cc1,"inconclusive: 26.9 µM [inhibitor, single point]",
COc1ccc(OC)c2sc(N(Cc3cccnc3)C(=O)c3ccco3)nc12,inactive,
COc1cc(OC)c(C(=O)/C=C/c2ccccc2)c(O)c1O,"inconclusive: 21.3 µM [inhibitor, single point]",
COc1ccccc1C1N=C(c2ccccc2C)NO1 (centres undefined),active: 8.49 µM,
Cc1cc(C)cc(-n2c(C)cc(/C=N\NC(=O)COc3cccc4cccnc34)c2C)c1,"inconclusive: 21.3 µM [inhibitor, single point]",
O=C(N/N=C/c1ccc(O)cc1)/C(=C/c1ccccc1)CCO,"inconclusive: 12 µM [inhibitor, partial curve, poor fit]",

SMILES,Potency,"activity change, negative = inhibition"
O=C(NCC1CCCO1)c1ccc2c3n(nc2c1)-c1ccccc1CO3 (centres undefined),active: 4.78 µM,
CCOc1ccc(/C=C/[N+](=O)[O-])c2ccccc12,"inconclusive: 21.3 µM [inhibitor, single point]",
COc1ccc(OC)c(N2C(=O)CC(C(C)c3ccccc3)C2=O)c1 (centres undefined),"inconclusive: 26.9 µM [inhibitor, partial curve]",
CCN(CC)S(=O)(=O)c1ccc2nc(NC(=O)c3cncc(Br)c3)sc2c1,"inconclusive: 15.1 µM [inhibitor, partial curve]",
Cc1ccc(NC(=O)CN2C(=O)N/C(=C/c3cc(C)n(-c4cccc(C(=O)O)c4)c3C)C2=O)cc1,"inconclusive: 26.9 µM [inhibitor, single point]",
Cc1ccc(OCc2nc(-c3ccc(C(=O)NCc4ccc(OC(C)C)cc4)cc3)oc2C)cc1,inactive,
CC(NC(=O)COc1ccc(N(C)S(=O)(=O)c2ccccc2)cc1)c1ccccc1 (centres undefined),inactive,
O=C(/C=C\c1ccccc1)NCC(=O)N/N=C/c1ccc(O)cc1O,"inconclusive: 26.9 µM [inhibitor, partial curve, poor fit]",
CCCCC1CCC(CCCC(C)CCC(=O)O)CC1 (centres undefined),active: 26.9 µM,
COc1ccccc1CNC(=O)CSc1ccsc1[N+](=O)[O-],"inconclusive: 30.1 µM [inhibitor, single point]",
Cc1cccc(NC(=S)N/N=C/c2cccc(O)c2)c1C,"inconclusive: 37.9 µM [inhibitor, single point]",
O=C(CN1CCOCC1)Nc1nc2ccc(F)cc2s1,inactive,
N/C(Cc1ccc(Cl)cc1Cl)=N\OC(=O)Cc1cccs1,active: 5.36 µM,
O=C(COc1ccc2c(-c3ccccc3)cc(=O)oc2c1)N[C@H](Cc1c[nH]c2ccccc12)C(=O)O,"inconclusive: 37.9 µM [inhibitor, partial curve, poor fit]",
COc1cccc(-c2n[nH]c3c2C(c2ccccn2)N(C)C3=O)c1 (centres undefined),inactive,
Cc1ccc(S(=O)(=O)CC(=O)c2ccccc2)cc1,"inconclusive: 16.9 µM [inhibitor, single point]",
Cc1onc(-c2ccccc2Cl)c1C(=O)Nc1nnc(-c2ccc(Cl)cc2Cl)s1,"inconclusive: 33.8 µM [inhibitor, single point]",
Cc1cc(C)n(C(C)CC(=O)Nc2ccc(C)c(F)c2)n1 (centres undefined),inactive,
CCOc1ccccc1NC(=O)NCc1ccc(F)cc1,"inconclusive: 37.9 µM [inhibitor, partial curve, poor fit]",
Cc1ccccc1Cn1c(SCc2ccc(C(=O)NCCc3ccccc3)cc2)nc2ccncc21,inactive,
CCOc1ccc(-c2ccc(SCC(=O)Nc3nnc(CC)s3)nn2)cc1,active: 0.601 µM,
CCc1cc2c3c([nH]c2cc1S(=O)(=O)NCCCOC)CC(C)(C)CC3=O,"inconclusive: 37.9 µM [inhibitor, single point]",
Cc1ccc(CNC(=O)COC(=O)c2c(C)noc2C)cc1,"inconclusive: 37.9 µM [inhibitor, partial curve, poor fit]",
CCn1c(=O)c2sccc2n2c(CCCC(=O)Nc3ccc(OC)c(OC)c3)nnc12,inactive,
Cc1cc(Nc2ccccc2)nc2cc(O)ccc12,active: 16.9 µM,

SMILES,Potency,"activity change, negative = inhibition"
CCOc1ccc(NC(=O)CN(C)S(=O)(=O)c2cccs2)cc1,"inconclusive: 26.9 µM [inhibitor, partial curve]",
O=C(N/N=C/c1cccs1)c1ccc2nc[nH]c2c1,"inconclusive: 23.9 µM [inhibitor, partial curve]",
O=C1N=c2ccccc2=C1c1sc(=S)n(NC(=O)c2cccc(O)c2)c1O,"inconclusive: 21.3 µM [inhibitor, partial curve, poor fit]",
CC(C)(C)c1ccc(-n2ncc3c2CCCC3NC(=O)c2cnccn2)cc1 (centres undefined),active: 23.9 µM,
O=C(Nc1ccccc1)Nc1ccc(Br)cc1F,"inconclusive: 4.26 µM [inhibitor, full curve]",
CN1CCN(C(=O)CCN2C(=O)c3ccccc3C2=O)CC1,inactive,
c1ccc(C2=NN(c3ccccc3)CC2)cc1,active: 3.38 µM,
COc1ccccc1/C=C/C(=O)NCC(=O)N/N=C/c1ccc2c(c1)OCO2,"inconclusive: 37.9 µM [inhibitor, partial curve, poor fit]",
CC(=O)Oc1ccc(-c2csc(Nc3ccc(S(N)(=O)=O)cc3)n2)cc1,inactive,
O=C(NCc1cccs1)C(=O)c1cn(CC(=O)N2CCOCC2)c2ccccc12,inactive,
CCOc1ccccc1N1CC(C(=O)Nc2cc(Cl)ccc2-n2cncn2)CC1=O (centres undefined),inactive,
Cc1cc(C)cc(N(CC(=O)NCc2ccccc2Cl)S(=O)(=O)c2c(C)[nH]c(=O)[nH]c2=O)c1,"inconclusive: 37.9 µM [inhibitor, partial curve, poor fit]",
CCOc1ccc(NC(=O)CN2CCSc3ccc(S(=O)(=O)N4CCCC4)cc32)cc1,"inconclusive: 37.9 µM [inhibitor, partial curve, poor fit]",
Cc1ccc(NC(=O)Cn2cccc2)cc1Cl,"inconclusive: 19 µM [inhibitor, partial curve, poor fit]",
O=C(Nc1ccc(Cl)cc1)OCc1cn(-c2ccc(Cl)cc2)nn1,"inconclusive: 23.9 µM [inhibitor, partial curve, poor fit]",
Cc1noc(Cn2c(=O)c3ccccc3n(CC(=O)Nc3ccc(C(C)C)cc3)c2=O)n1,inactive,
COc1cccc(-c2noc(C3CCCN(C(=O)Cc4ccccc4)C3)n2)c1 (centres undefined),"inconclusive: 23.9 µM [inhibitor, single point]",
Cc1ccc(O)c(NC(=O)c2cc(-c3cccs3)on2)c1,active: 2.13 µM,
CCCc1nn2c(=O)cc(COC(=O)c3ccco3)nc2s1,"inconclusive: 19 µM [inhibitor, partial curve, poor fit]",
Nc1ccc(Nc2cc(O)c3ncccc3c2)cc1,"inconclusive: 12 µM [inhibitor, partial curve]",
COc1ccccc1N1CC(O)=C(c2nc3ccccc3s2)C1=N,inactive,
CC(C)(C)c1ccc(-c2nc(NCc3cccnc3)c3ccccc3n2)cc1,active: 3.38 µM,
CCCCN(C)S(=O)(=O)c1ccc(C(=O)Nc2nnc(-c3ccco3)o2)cc1,"inconclusive: 30.1 µM [inhibitor, single point]",
COc1ccc(OC(=O)COc2ccc(C)cc2)cc1,"inconclusive: 19 µM [inhibitor, partial curve]",
